# According to a collection of fitness landscapes (doi:10.1016/j.celrep.2020.107928):
# In all, about 81,000 sequences were measured (“one-hybrid fitness for binding NBS DNA”: median about -0.1, highest 2% from about 0.36 on). The list shows a part of the results.
# B1: Caulobacter ParB omega fusion; a variant is named by its letters at X, in order, B8GW30 (parent)
# chain: MESVVVGEPGMSEGRRGLGRGLSALLGEVDAAPAQAPGEQLGGSREAPIEILQRNPDQPRRTFREEDLEDLSNSIREKGVLQPILVRPSPDTAGEYQIVAGERAWRAAQRAGLKTVPIMVRELDDLAVLEIGIIENVQRADLNVLEEALSYKVLMEKFERTQENIAQTIGKSXSHVANXMRLLXLPDEVQSYLVSGELTAXHARAIAAAADPVALAKQIIEGGLSVRETEALARKAPNLSAGKSKGGRPPRVKDTDTQALESDLSSVLGLDVSIDHRGSTGTLTITYATLEQLDDLCNRLTRGI
# Variants of: B1
# Experiment: one-hybrid fitness for binding NBS DNA (the Noc-binding site; scaled: cognate 1, non-cognate 0); higher = stronger binding
# Settings: with NBS DNA site
# Method in brief: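 Values were rescaled so that cognate is 1 and non-cognate is 0. Each is a fitness, the log change in a variant's read ratio to wild type from Illumina reads of plasmids before and after selection, with three replicate libraries pooled and variants under 10 reads dropped. Selection of the Caulobacter ParB libraries, four specificity codons randomised, used E. coli USO with a HIS3 reporter, site 19 bp from the promoter, on M9-minus-histidine with 0.1 mM IPTG and 5 mM 3-AT for 48 hours at 37°C.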
row,Variant,one-hybrid fitness for binding NBS DNA
1,RQSN,≤ 0.2
2,SPAN,≤ 0.2
3,LCTI,≤ 0.2
4,MTFM,≤ 0.2
5,QHTH,≤ 0.2
6,QAWG,≤ 0.2
7,GSFL,≤ 0.2
8,VQDY,≤ 0.2
9,VKTV,≤ 0.2
10,SCAV,≤ 0.2
11,ATIL,≤ 0.2
12,VMLG,≤ 0.2
13,MGSR,≤ 0.2
14,PLQD,≤ 0.2
15,RNGY,≤ 0.2
16,WEER,≤ 0.2
17,TRDI,≤ 0.2
18,RFSS,0.231
19,MFLC,≤ 0.2
20,PFMV,≤ 0.2
21,ISCD,≤ 0.2
22,ARKP,≤ 0.2
23,CQFR,≤ 0.2
24,DENV,≤ 0.2
25,GLNT,≤ 0.2

row,Variant,one-hybrid fitness for binding NBS DNA
1,EFFR,≤ 0.2
2,TFDT,≤ 0.2
3,WSPC,≤ 0.2
4,LHWI,≤ 0.2
5,TLYV,≤ 0.2
6,WYDG,≤ 0.2
7,KMAW,≤ 0.2
8,NGLT,≤ 0.2
9,WNTH,≤ 0.2
10,TSHN,≤ 0.2
11,HRMG,≤ 0.2
12,ANWT,≤ 0.2
13,WNLR,≤ 0.2
14,LCYA,≤ 0.2
15,KCCS,≤ 0.2
16,ESSG,≤ 0.2
17,MKIV,≤ 0.2
18,RWMW,≤ 0.2
19,IVKQ,≤ 0.2
20,TSNS,≤ 0.2
21,FTDC,≤ 0.2
22,KAHG,≤ 0.2
23,PYCL,≤ 0.2
24,RWHD,≤ 0.2
25,KNMS,≤ 0.2

row,Variant,one-hybrid fitness for binding NBS DNA
1,QQYQ,≤ 0.2
2,PHAI,≤ 0.2
3,PAIR,≤ 0.2
4,HANN,≤ 0.2
5,GFPL,≤ 0.2
6,HWPS,≤ 0.2
7,AIET,≤ 0.2
8,CCWS,≤ 0.2
9,KVIS,≤ 0.2
10,KYWG,≤ 0.2
11,RDDC,≤ 0.2
12,NNKA,≤ 0.2
13,GRYD,≤ 0.2
14,CIDT,≤ 0.2
15,VFSY,≤ 0.2
16,LTLT,≤ 0.2
17,TAHS,≤ 0.2
18,NCEV,≤ 0.2
19,CLNS,≤ 0.2
20,MQNR,≤ 0.2
21,YKHC,≤ 0.2
22,SAVV,≤ 0.2
23,RPFR,≤ 0.2
24,HYTI,≤ 0.2
25,HFFL,≤ 0.2

row,Variant,one-hybrid fitness for binding NBS DNA
1,QMHH,0.221
2,WKSR,≤ 0.2
3,AKLD,≤ 0.2
4,TMYP,≤ 0.2
5,LERG,≤ 0.2
6,EQHS,≤ 0.2
7,NTLE,≤ 0.2
8,THMT,≤ 0.2
9,QNDW,≤ 0.2
10,CTDG,≤ 0.2
11,SVSI,≤ 0.2
12,HWAY,≤ 0.2
13,KRSN,≤ 0.2
14,LCYN,≤ 0.2
15,TLSE,≤ 0.2
16,RKWF,≤ 0.2
17,HAVS,≤ 0.2
18,QRKG,0.485
19,HRTG,≤ 0.2
20,VGPA,≤ 0.2
21,HYRD,≤ 0.2
22,ASQR,≤ 0.2
23,NITT,≤ 0.2
24,YVMI,≤ 0.2
25,EYGG,≤ 0.2

row,Variant,one-hybrid fitness for binding NBS DNA
1,AISC,≤ 0.2
2,PKRT,≤ 0.2
3,YFYT,≤ 0.2
4,SERL,≤ 0.2
5,WSSC,≤ 0.2
6,QFRK,0.227
7,VYPA,≤ 0.2
8,KDNG,≤ 0.2
9,RTME,≤ 0.2
10,IYMG,≤ 0.2
11,YHFS,≤ 0.2
12,SDLY,≤ 0.2
13,NRRH,≤ 0.2
14,SMTR,≤ 0.2
15,TPTN,≤ 0.2
16,RGAF,≤ 0.2
17,FVMC,≤ 0.2
18,LRWE,≤ 0.2
19,SEYC,≤ 0.2
20,LISE,≤ 0.2
21,MDWP,≤ 0.2
22,ARFL,≤ 0.2
23,VVAR,≤ 0.2
24,LHDG,≤ 0.2
25,RSTI,≤ 0.2

row,Variant,one-hybrid fitness for binding NBS DNA
1,DTSS,≤ 0.2
2,FTNR,≤ 0.2
3,RSGK,≤ 0.2
4,RPAK,≤ 0.2
5,ASKI,≤ 0.2
6,WHLR,≤ 0.2
7,VLAW,≤ 0.2
8,GGRS,≤ 0.2
9,NPEV,≤ 0.2
10,VFLE,≤ 0.2
11,DRMA,≤ 0.2
12,AALF,≤ 0.2
13,RCIE,≤ 0.2
14,SKKF,≤ 0.2
15,YLMS,≤ 0.2
16,MAFT,≤ 0.2
17,QAND,≤ 0.2
18,PNKT,≤ 0.2
19,PVSM,≤ 0.2
20,CLAM,≤ 0.2
21,VNPG,≤ 0.2
22,GIRT,≤ 0.2
23,ITPL,≤ 0.2
24,HEQG,≤ 0.2
25,MWAC,≤ 0.2

row,Variant,one-hybrid fitness for binding NBS DNA
1,ERPT,≤ 0.2
2,KQAG,≤ 0.2
3,KGDR,≤ 0.2
4,RRPG,≤ 0.2
5,QIFG,≤ 0.2
6,YIFR,≤ 0.2
7,YMPS,≤ 0.2
8,SGYA,≤ 0.2
9,LKFM,≤ 0.2
10,RIGW,≤ 0.2
11,ELLG,≤ 0.2
12,ASVF,≤ 0.2
13,DYLW,≤ 0.2
14,PVVG,≤ 0.2
15,QLPA,≤ 0.2
16,RLHC,≤ 0.2
17,PWDR,≤ 0.2
18,RTNV,≤ 0.2
19,NCEY,≤ 0.2
20,MAKY,≤ 0.2
21,RTRI,≤ 0.2
22,EMKV,≤ 0.2
23,HLCV,≤ 0.2
24,TACA,≤ 0.2
25,QSWC,≤ 0.2

row,Variant,one-hybrid fitness for binding NBS DNA
1,APGE,≤ 0.2
2,MSDN,≤ 0.2
3,KQKW,≤ 0.2
4,TWYG,≤ 0.2
5,NWCT,≤ 0.2
6,RQGC,≤ 0.2
7,MVAG,≤ 0.2
8,QMSV,≤ 0.2
9,QCIA,0.25
10,TKRT,≤ 0.2
11,DHMR,≤ 0.2
12,HRKG,≤ 0.2
13,GMMC,≤ 0.2
14,TCPP,≤ 0.2
15,QLEA,≤ 0.2
16,SANN,≤ 0.2
17,CDLT,≤ 0.2
18,KKTN,≤ 0.2
19,HADR,≤ 0.2
20,DCRR,0.416
